Each structure is given as a SMILES string. Hit rate of the full screen: of about 150,000 compounds, about 540 (0.36%) showed an effect of 50% or more. This is one part of the list.

The test system of this experiment is Plasmodium falciparum. The experiment is described as follows: Primary screen in NF54 nanoGlo assay, in single point, at 2uM, 72h; a lower Z score goes with more inhibition. Particulars: timepoint 72 hour. It is filed as functional, Erythrocyte.
Consider `CCc1noc(C)c1C(=O)NC1CCN(C(C)C)CC1`, for which the % Inhibition (commonly the relative decrease from the control value, in per cent) is -15% and the Z score is 2.84.
Turning to `O=C(C1CCCC1)N1CC[C@@]2(O)CCN(CCCc3cccnc3)C[C@H]2C1`, the “% Inhibition” value is given as -1% and the Z score was determined as 0.25.
Take `COC(=O)c1nc2c(nc1N)CC(C)(C)OC2`: the “% Inhibition” value is reported as 9% and the Z score is reported as -1.53.
Turning to `CCCC(=O)NC1C(c2ccc(N(C)C)cc2)Nc2ncnn2C1c1ccccc1` (stereo unspecified), the “% Inhibition” value is 7% and the Z score is on record as -0.83.
Regarding `COc1ccccc1Nc1cc(Nc2ccccc2OC)n(C(=O)c2cccs2)n1`, the “% Inhibition” value is -5% and the Z score was 0.78.
Consider `Cc1ncoc1CNS(=O)(=O)N1CC2CCC1C2` (stereo unspecified), for which the “% Inhibition” value was -4% and the Z score turned out to be 0.78.
Regarding `O=C(COc1ccccc1)Nc1ccccc1C(=O)NCCN1CCOCC1`, the “% Inhibition” value is recorded as -5% and the Z score was 0.55.
`CC(C)n1nc2c(c1NC(=O)NCC(F)(F)F)CCC2`: the “% Inhibition” value is on record as 2% and the Z score is -0.2.
Taken in the same sequence, the figures for `C[C@H]1CN(C(=O)C2(CF)CCC2)CC(=O)N1` were -2% and 0.29.
`C[C@H](NC(=O)CCCn1ccnc1)c1cccc(Cl)c1Cl`: the “% Inhibition” value was -14% and the Z score worked out at 1.92.
As to `CC1OCCC1(O)CNC(=O)C1CC12CCCC2` (stereo unspecified), the “% Inhibition” value is recorded as -4% and the Z score turned out to be 0.63.
For `CC1CCC(C(=O)Nc2ccccn2)C2C(=O)N(c3ccccc3)C(=O)C12` (stereo unspecified), the “% Inhibition” value is -17% and the Z score was determined as 2.68.
For `COc1ccc(CCC(=O)N2CCCC[C@H]2c2nn(C)c3c2COCC3)cc1`, the “% Inhibition” value is -15% and the Z score turned out to be 1.47.
Taken in the same sequence, the figures for `O[C@]1(CN2CCCC2)COCCN(c2nc(-c3ccccc3)no2)C1` were 18% and -2.31.
Turning to `CCOc1ccc(C(=O)N2CC[C@@]3(C2)C(=O)Nc2ccccc23)cc1`, the “% Inhibition” value was -4% and the Z score is 0.66.
On to `CCCCc1noc([C@H](C)Nc2cccc(N3CCCC3=O)c2)n1`, for which the “% Inhibition” value is 7% and the Z score is on record as -0.9.
`COc1ccc(CNC(=O)c2ccc(Oc3nccnc3N3CCOCC3)cc2)cc1OC`: the “% Inhibition” value stood at 9% and the Z score is on record as -1.38.
In the same order, the values of `CC(C)(C)CC(=O)N1CCC2(CC1)OC[C@@H](C(=O)N1CCCC1)N2C(=O)c1ccc(F)cc1` are -4% and 0.49.
With `Cc1ccc(Oc2cc(CNS(=O)(=O)N3CC(C)OC(C)C3)ccn2)cc1C` (stereo unspecified), the “% Inhibition” value is reported as -2% and the Z score is given as 0.32.
Consider `C1=CC[C@@H](CNc2cccc(Cn3cnnc3)c2)CC1`, for which the “% Inhibition” value is given as -4% and the Z score is 0.45.
Turning to `CCOc1ccc(CCNC(=O)c2ccc(-n3nnc4cccnc43)cc2)cc1OCC`, the “% Inhibition” value is reported as -1% and the Z score was 0.1.
Taken in the same sequence, the figures for `CCC(=O)Nc1ccnc(C(C)(C)C)c1` were -3% and 0.37.
Regarding `COCCC(=O)N1CCN(C[C@H](O)COc2cccc3ccccc23)CC1`, the “% Inhibition” value was -8% and the Z score came out at 1.11.
Consider `CCC1=N[C@@H](c2ccccc2Cl)N(O)C1(C)C`, for which the “% Inhibition” value is listed as -2% and the Z score is on record as 0.42.
Turning to `CCCNC(=O)NCCn1nc(-c2ccncc2)cc1C`, the “% Inhibition” value is given as -1% and the Z score is on record as 0.17.
As to `Cn1cc(CCC(=O)N2CC[C@@](O)(c3ccccc3)[C@H]3CCCC[C@@H]32)cn1`, the “% Inhibition” value is on record as -8% and the Z score is recorded as 0.89.
Taken in the same sequence, the figures for `COc1ccc(OC[C@@H](O)CN(C)C)c(CN2CCc3sccc3C2)c1` were -7% and 1.42.
With `COc1cncc(C(Nc2cc(OC)nc(OC)n2)[C@H]2C[C@H](O)C2)c1` (stereo partly specified), the “% Inhibition” value was -6% and the Z score was found to be 0.61.
Take `CCN(CC)CCN(CC)C(=O)c1cnn(-c2nccc(-c3cccs3)n2)c1C`: the “% Inhibition” value was -6% and the Z score came to 1.12.
Consider `Cc1ccc2c(c1)c(C)c(C)n2C[C@H](O)CN1C(=O)CNC1=O`, for which the “% Inhibition” value amounted to 35% and the Z score is given as -3.93.
On to `Cc1ccc(S(=O)(=O)N2CCC[C@H](Cn3cnc4cccnc43)C2)cc1`, for which the “% Inhibition” value is recorded as -14% and the Z score was 2.16.
Regarding `Cc1ccc2c(c1)C(NC(=O)NC1C3CCOC3C13CCC3)CO2` (stereo unspecified), the “% Inhibition” value is recorded as -11% and the Z score was 1.42.
Consider `O=C(CN1C=NS(=O)(=O)c2ccccc21)Nc1ccc(Cl)cc1`, for which the “% Inhibition” value is reported as -11% and the Z score was 1.34.
In the same order, the values of `CC(C)n1ncnc1NC(=O)C[C@H]1CCOC1` are -11% and 1.41.
Regarding `NC(=O)CCN(Cc1ccccc1)Cc1cncn1C1CCCCC1`, the “% Inhibition” value is recorded as -5% and the Z score worked out at 0.91.
For `CCCN1CCN(CCNC(=O)c2cccc(Nc3ccnc(-c4ccc(C)cc4)n3)c2)CC1`, the “% Inhibition” value is on record as -16% and the Z score worked out at 1.45.
Regarding `CCn1cc(C)c(C(=O)O)c1CC(=O)N1CCN(c2ccccc2OC)CC1`, the “% Inhibition” value is reported as -12% and the Z score is recorded as 1.53.
Consider `Cc1ncsc1CCS(=O)(=O)N1CCC(n2ccnc2)CC1`, for which the “% Inhibition” value is listed as -3% and the Z score is listed as 0.56.
In the same order, the values of `O=C(CNS(=O)(=O)c1cccc(Br)c1)NCCCc1ccccc1` are 1% and -0.2.
`Cc1c2c(n(Cc3cccc(C(F)(F)F)c3)c1C(=O)NCc1cccc(C(F)(F)F)c1)CCCC2`: the “% Inhibition” value was 4% and the Z score is -0.52.
Regarding `O=C(NCC(=O)N1CCC[C@H]1CN1CCOCC1)c1cccc(Cl)c1`, the “% Inhibition” value is given as 8% and the Z score is -1.63.
Take `COc1ccccc1CCNC(=O)c1ccccc1N1CCC(NS(=O)(=O)c2ccc(F)cc2)CC1`: the “% Inhibition” value was 11% and the Z score is recorded as -1.5.
As to `CC[C@@H](C(=O)NC1CCN(C)CC1)N(c1ccc(F)cc1)S(C)(=O)=O`, the “% Inhibition” value came to 19% and the Z score is -2.23.

The record behind these values is ChEMBL document CHEMBL4888484, “Replenishing the malaria drug discovery pipeline: Screening and hit evaluation of the MMV Hit Generation Library 1 (HGL1) against asexual blood stage Plasmodium falciparum ,using a nano luciferase reporter read-out” (2022).
